Measured values taken from PubChem BioAssay AID1454 (National Center for Advancing Translational Sciences (NCATS), 2008).
“And” between values parts separate entries of the source, which are not always exact repeats. Identical values can stand only once. Screen size: about 130,000 compounds; about 550 (0.42%) were called active. The shares of active, inactive and inconclusive entries below differ from those in the screen. Calls follow the shape of the dose curve; as a rule, active = well fitted inhibition curve with a large enough effect; inconclusive = small, poorly fitted or top-dose-only effect, or effect the other way; inactive = flat fitted curve, though single readings scatter. Where the call is inconclusive, the potency comes from a doubtful curve fit.

Test: qHTS Assay for Inhibitors of the ERK Signaling Pathway using a Homogeneous Screening Assay; Stimulation with EGF; also: nearly all actives have a fitted effect of over 55% in size
Conditions: HEK293-V1b, EGF-stimulated phospho-ERK AlphaScreen
Summary of the method: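 Homogeneous cell-based phospho-ERK assay: HEK293/V1b cells in 1% FBS, compound 30 min then EGF 5 min, AlphaScreen luminescence. Activity normalized between DMSO and 25 nM EGF controls; AC50 from Hill modelling.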
Potency is read from the fitted curve at half-maximal effect; tags tell the direction and shape of the fitted curve.

SMILES | Potency
CC/C(C)=N/Nc1ccc(S(=O)(=O)N2CCCC2)cc1[N+](=O)[O-] | inconclusive: 31.6 µM [inhibitor, single point]
O=S(=O)(c1ccccc1)N(CC1CO1)c1cccc2ccccc12 (configuration not stated) | inactive
C[C@@H]1CN=C2N(CCNC(=O)CCC3CCCCC3)[C@H](Cc3ccc(O)cc3)CN21 | inactive
CN(C)c1ccc(NC2=C(Cl)C(=O)c3ccccc3C2=O)cc1 | active: 14.1 µM
COc1cc(OC)c2c(c1)OC(c1ccccc1)CC2=O (configuration not stated) | inactive
OCCCn1c(-c2ccccc2)csc1=Nc1ccccc1 | inconclusive: 12.6 µM [inhibitor, partial curve]
Oc1ccc(N=Nc2ccc3c(c2)OCCO3)c2cccnc12 | inconclusive: 31.6 µM [inhibitor, partial curve]
O=[N+]([O-])c1cc(Cl)ccc1N1CCCCC1 | inconclusive: 22.4 µM [inhibitor, partial curve]
CCN(CC)S(=O)(=O)c1ccc(Cl)c(C(=O)Nc2ccc(Cl)cc2[N+](=O)[O-])c1 | inconclusive: 17.8 µM [inhibitor, partial curve]
CCN=c1scc(C)n1/N=C/c1cc(Br)c(O)c(Br)c1 | inconclusive: 5.01 µM [inhibitor, full curve, poor fit]
COc1ccc(C(=O)Oc2cccc(Nc3ncnc4ccccc34)c2)cc1OC | active: 25.1 µM
O=C1C2CC=CCC2C(=O)N1c1ccc(NCCc2ccccc2F)c([N+](=O)[O-])c1 (configuration not stated) | inconclusive: 11.2 µM [inhibitor, partial curve]
O=C1/C(=C/c2ccncc2)CCC/C1=C\c1ccncc1 | active: 22.4 µM
COc1ccc(-n2c(=O)c3ccccc3n(Cc3ccccc3F)c2=O)cc1OC | inconclusive: 39.8 µM [inhibitor, single point]
O=C(Nc1ccc(Oc2ccc(NC(=O)Nc3ccc([N+](=O)[O-])cc3)cc2)cc1)Nc1ccc([N+](=O)[O-])cc1 | inconclusive: 14.1 µM [inhibitor, single point]
COc1ccc(CCNC(=O)C(=O)NCC2CCNCC2)cc1OC | inactive
Cc1cc(C)nc(/N=C(\N)Nc2cccc(OCc3ccccc3)c2)n1 | inconclusive: 35.5 µM [inhibitor, single point]
COc1ccc(NC(=S)NNC(=O)COc2ccc(Cl)cc2Cl)cc1 | inconclusive: 2.24 µM [activator, full curve]
CCCOc1ccc(/C=N/Nc2ccccc2[N+](=O)[O-])c(O)c1 | inconclusive: 3.55 µM [inhibitor, full curve]
CNC(=O)NC(=O)C(C)OC(=O)c1ccc(Cl)c(S(=O)(=O)Nc2ccc(F)cc2)c1 (configuration not stated) | inconclusive: 3.55 µM [inhibitor, single point]
CCc1ccc2nc(Nc3ccc(OC)cc3OC)c(C#N)cc2c1 | inconclusive: 20 µM [activator, single point]
c1ccc(NC2=Nc3cccc4cccc2c34)cc1 | inconclusive: 11.2 µM [inhibitor, partial curve]
CSc1ccc(/C=N/N2CCN(Cc3ccc(Cl)cc3)CC2)cc1 | inconclusive: 22.4 µM [inhibitor, partial curve, poor fit]

SMILES | Potency
O=C(NCCNc1ccc([N+](=O)[O-])cc1C(F)(F)F)c1ccccc1 | inconclusive: 20 µM [inhibitor, single point]
c1ccc(-n2ncc3c(NCC4CCCO4)ncnc32)cc1 (configuration not stated) | inconclusive: 3.55 µM [activator, single point]
CN1C(=O)/C(=C/C=C2\SCCN2C)N(C)C1=S | inconclusive: 39.8 µM [inhibitor, single point]
CC1CCC(C(C)C)C(OC(=O)Cn2c(-c3ccc(Br)cc3)[n+](C)c3ccccc32)C1 (configuration not stated) | inconclusive: 39.8 µM [inhibitor, single point] and inconclusive: 31.6 µM [inhibitor, single point]
CCCCCCCCCOC1OC(CO)C(O)C(O)C1NC(C)=O (configuration not stated) | inconclusive: 10 µM [activator, partial curve]
O=C(c1ccc(Cl)cc1)N1CCN(c2ccnc3cc(Cl)ccc23)CC1 | inconclusive: 39.8 µM [inhibitor, single point]
CCOc1cc(CNC(C)(C)C)ccc1OCC(=O)Nc1cccc(C(F)(F)F)c1 | inactive
Fc1ccc(CSc2ncnc3scc(-c4ccccc4)c23)cc1 | inconclusive: 31.6 µM [activator, single point]
Cc1nc(N)nc(N)c1/C=C/C(C)(C)c1ccc(Cl)cc1 | inconclusive: 39.8 µM [inhibitor, single point]
C[C@@](N)(C(=O)O)c1cccc(CC(=O)O)c1 | inactive
COc1ccc(C(=O)/C=C/c2ccccc2)cc1 | inactive
CCOC(=O)N1C/C(=C\c2ccccc2)C(=O)/C(=C/c2ccccc2)C1 | inconclusive: 39.8 µM [inhibitor, single point]
Cn1c(=O)cc2c3c(c(N4CCCCC4)ccc31)C(=O)c1ccccc1-2 | active: 22.4 µM
COC(=O)c1ccc(-n2c(C)cc(/C=N/Nc3nc(C)cc(=O)[nH]3)c2C)cc1 | inconclusive: 11.2 µM [inhibitor, partial curve]
Cc1cc(C(=O)COC(=O)c2ccc(CO)cc2)c(C)n1CC1COc2ccccc2O1 (configuration not stated) | inconclusive: 39.8 µM [inhibitor, single point]
CCOc1ccc(N=Nc2cc(C(C)C)ccc2O)cc1 | inconclusive: 0.631 µM [inhibitor, partial curve, poor fit]
Cc1onc(-c2c(Cl)cccc2Cl)c1COC(=O)c1ccc([N+](=O)[O-])cc1 | inconclusive: 31.6 µM [inhibitor, single point]
NCCC[C@@H](CC(=O)N[C@@H]1CCCC[C@H]1C(=O)N[C@H](CC(=O)N[C@@H](CCC(=O)O)CC(=O)O)Cc1c[nH]c2ccccc12)NC(=O)C[C@H](CO)NC(=O)[C@@H]1CNCC[C@H]1N | inactive
COc1ccc(NC(=O)c2ccccc2)c([N+](=O)[O-])c1 | inconclusive: 20 µM [inhibitor, partial curve]
Cc1ccc(CNC(=O)c2ccc(N3CCc4ccccc43)c([N+](=O)[O-])c2)cc1 | inconclusive: 22.4 µM [inhibitor, single point]
Cn1cc(/C=C2\SC(=O)NC2=S)c2ccccc21 | inconclusive: 20 µM [inhibitor, partial curve]
CCC(C(=O)NC1CCCCC1)N(Cc1cccs1)C(=O)c1snc(C(N)=O)c1N (configuration not stated) | inconclusive: 39.8 µM [inhibitor, single point]
O=C(COc1cccc(F)c1)Nc1ccc2[nH]c(=O)[nH]c2c1 | inconclusive: 1 µM [activator, full curve, poor fit]

SMILES | Potency
Nc1nc(CSc2ccccc2)nc(N2CCCCC2)n1 | inactive
CC(C)(C)NC(=O)COC(=O)CNC(=O)c1cc(Cl)cc([N+](=O)[O-])c1 | inactive
N#C/C(=C\C1=C(N2CCOCC2)C(=C\c2ccc(Cl)cc2)/CC1)C(=O)Nc1ccccc1F | inconclusive: 1.78 µM [inhibitor, full curve]
CN1/C(=C\C(=O)COC(=O)c2ccc(O)cc2)C(C)(C)c2ccccc21 | inconclusive: 25.1 µM [inhibitor, single point]
CCc1ccc2c(c1)C1(NN=C(c3ccc(C)cc3)S1)C(=O)N2 (configuration not stated) | inactive
Cc1ccn(CC(=O)N/N=C/c2cc([N+](=O)[O-])ccc2O)n1 | inactive
CCN(CC)C1=CC2=CC(=C(C#N)C#N)CCC2CC1 (configuration not stated) | inactive
COCCN=c1scc(-c2ccc3c(c2)NC(=O)CO3)n1/N=C(\C)c1ccc(O)cc1 | inconclusive: 25.1 µM [inhibitor, single point]
O=c1cc(CCl)[nH]c2nc3ccccc3n12 | inactive
CCOC(=O)COc1ccc2c(C#N)c3ccccn3c2c1 | inconclusive: 14.1 µM [activator, single point]
Nc1[nH]n(-c2ccccc2)c(=O)c1N=Nc1ccccc1 | inconclusive: 31.6 µM [inhibitor, partial curve]
COc1cc(C=O)c([N+](=O)[O-])cc1OC | inactive
CCCC(=O)OCCNc1cc(Sc2nccn2C)c2nonc2c1[N+](=O)[O-] | inconclusive: 25.1 µM [inhibitor, single point]
COc1ccc2[nH]cc(CCNc3ncncc3-c3ccc(N(C)C)cc3)c2c1 | inconclusive: 28.2 µM [inhibitor, single point]
COC(=O)c1cccc(Nc2ncnc3sccc23)c1 | inconclusive: 39.8 µM [inhibitor, single point]
CCCN(CCC)C(=O)c1cc([N+](=O)[O-])cc2c1-c1ccc([N+](=O)[O-])cc1C2=C(C#N)C#N | inconclusive: 17.8 µM [inhibitor, single point]
C/C=C/c1cc(CN2CCN(c3ccccc3)CC2)c(O)c(OC)c1 | inconclusive: 28.2 µM [inhibitor, single point]
C=CCN=C1CC(C)(C)CC(=O)/C1=C(\O)CCCN1C(=O)c2ccccc2C1=O | inconclusive: 31.6 µM [inhibitor, single point]
COC(=O)c1ccc(C(NC(=O)OCc2ccccc2)/C(I)=C/[C@@H](C)C(=O)NCc2ccncc2)cc1 (some centres not stated) | inactive
CC1=C(C(=O)O)N2C(=O)[C@@H](NC(=O)[C@@H](N)c3ccccc3)[C@@H]2SC1 | inactive
O=C(OCCN1C(=O)c2cccc3c(N4CCOCC4)ccc(c23)C1=O)c1cccc(Cl)c1 | inconclusive: 25.1 µM [activator, partial curve]
